The other results are listed elsewhere or left out. The list includes weakly bound sequences.
What follows are sequences tested against MaxL homodimer (UniProt P61244) (assay: universal protein-binding microarray (PBM)). Conditions: PBS-based mixture, 10 nM His-tagged protein dimer, 2% milk, 200 ng/uL BSA, 50 ng/uL salmon testes DNA, 0.02% TX-100; detection with Alexa 488 anti-His …; high values mean tight binding; most listed sequences are background and not binding sites; double strand, one strand shown.
Sequence of UniProt P61244 (P61244 whole entry): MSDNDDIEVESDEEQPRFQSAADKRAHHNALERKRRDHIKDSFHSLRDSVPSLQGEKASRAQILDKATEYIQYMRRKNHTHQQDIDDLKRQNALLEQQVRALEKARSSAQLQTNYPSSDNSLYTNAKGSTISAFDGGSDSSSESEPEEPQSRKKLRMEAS
For ACCCTGGC, the binding signal (normalized occupancy) was 0.0697.
For CAATCACA, the binding signal (normalized occupancy) was 0.0818.
GCTATGAC showed a binding signal (normalized occupancy) of 0.071.
Sequence AATGGGCT has a binding signal (normalized occupancy) of 0.0705.
With AACTCGCG the binding signal (normalized occupancy) was 0.0749.
With ACAAGTCT the binding signal (normalized occupancy) was 0.0786.
With ATAAAGAG the binding signal (normalized occupancy) was 0.0777.
AAACACGG showed a binding signal (normalized occupancy) of 0.0741.
CAGAGAGG was tested, and the binding signal (normalized occupancy) was 0.0696.
CACTGCTG gave a binding signal (normalized occupancy) of 0.0746.
With CAATGCCG the binding signal (normalized occupancy) was 0.0728.
ACCCTCTC showed a binding signal (normalized occupancy) of 0.077.
Work on GATCGGAC yielded a binding signal (normalized occupancy) of 0.0691.
In the case of ATAATGTC, the binding signal (normalized occupancy) is reported as 0.0884.
Work on GGATTATA yielded a binding signal (normalized occupancy) of 0.079.
CGAAGCAG gave a binding signal (normalized occupancy) of 0.0758.
AGAGCCCG showed a binding signal (normalized occupancy) of 0.0656.
For CCGTTGTA, the binding signal (normalized occupancy) was 0.0764.
Work on AGTAGCTA yielded a binding signal (normalized occupancy) of 0.0715.
In the case of CAGTACGG, the binding signal (normalized occupancy) is reported as 0.0731.
With AGATCTAT the binding signal (normalized occupancy) was 0.077.
Work on ATTAGGGC yielded a binding signal (normalized occupancy) of 0.0749.
ATAGATCA was tested, and the binding signal (normalized occupancy) was 0.0776.
For ATGTTCAA, the binding signal (normalized occupancy) was 0.0769.
With ACATCCAT the binding signal (normalized occupancy) was 0.0873.
Sequence ACGCATTG has a binding signal (normalized occupancy) of 0.0891.
Sequence GATCATAC has a binding signal (normalized occupancy) of 0.079.
For CCTACGTA, the binding signal (normalized occupancy) was 0.0803.
ATGTATAA gave a binding signal (normalized occupancy) of 0.0887.
With GGGAACTA the binding signal (normalized occupancy) was 0.0712.
ACACTACC gave a binding signal (normalized occupancy) of 0.0816.
ATGTGGCC was tested, and the binding signal (normalized occupancy) was 0.0917.
In the case of TCTCAGAA, the binding signal (normalized occupancy) is reported as 0.0737.
With ACGAGCCC the binding signal (normalized occupancy) was 0.0666.
With CCGATTTC the binding signal (normalized occupancy) was 0.0698.
TCACTTAA showed a binding signal (normalized occupancy) of 0.078.
Sequence ATTCGCAC has a binding signal (normalized occupancy) of 0.0748.
With ATATCACC the binding signal (normalized occupancy) was 0.0854.
With ATCGATGG the binding signal (normalized occupancy) was 0.0804.
GAAGGAAC gave a binding signal (normalized occupancy) of 0.0744.
CATCTAGA showed a binding signal (normalized occupancy) of 0.0769.
Sequence CCAGCCAC has a binding signal (normalized occupancy) of 0.0768.
In the case of GACACACA, the binding signal (normalized occupancy) is reported as 0.0862.
In the case of CAATCGAC, the binding signal (normalized occupancy) is reported as 0.0743.
In the case of CGAGCGAA, the binding signal (normalized occupancy) is reported as 0.0703.
ATTAGCTA gave a binding signal (normalized occupancy) of 0.0721.
For AAGCACGT, the binding signal (normalized occupancy) was 0.102.
Sequence ACTTATAA has a binding signal (normalized occupancy) of 0.0774.
CAGCGCTA gave a binding signal (normalized occupancy) of 0.07.
For ATTCTCCG, the binding signal (normalized occupancy) was 0.0714.
With CCGTTTGC the binding signal (normalized occupancy) was 0.0669.
Sequence ATCGACAT has a binding signal (normalized occupancy) of 0.0817.
With CTCTGGCA the binding signal (normalized occupancy) was 0.068.
Sequence GTGATGCA has a binding signal (normalized occupancy) of 0.0849.
TATTTCAA was tested, and the binding signal (normalized occupancy) was 0.0812.
In the case of GTACATCA, the binding signal (normalized occupancy) is reported as 0.0813.
With AGATAGTG the binding signal (normalized occupancy) was 0.0756.
TCACCGCA showed a binding signal (normalized occupancy) of 0.0739.
ATATGTAA showed a binding signal (normalized occupancy) of 0.0818.
GCAGATTA was tested, and the binding signal (normalized occupancy) was 0.0795.
With ATAGCTGG the binding signal (normalized occupancy) was 0.0693.
CCCGGTTA gave a binding signal (normalized occupancy) of 0.0725.
GTTTTAAA gave a binding signal (normalized occupancy) of 0.073.
For AGGTATGC, the binding signal (normalized occupancy) was 0.0813.
ACCATTTG was tested, and the binding signal (normalized occupancy) was 0.0777.
ATGCTCAG was tested, and the binding signal (normalized occupancy) was 0.0787.
In the case of CTTCTAAC, the binding signal (normalized occupancy) is reported as 0.07.
Sequence ATAACCTC has a binding signal (normalized occupancy) of 0.0862.
GTCCCGAC was tested, and the binding signal (normalized occupancy) was 0.0732.
CATCCACG showed a binding signal (normalized occupancy) of 0.108.
In the case of CTCCTTGC, the binding signal (normalized occupancy) is reported as 0.0749.
In the case of ATGGCACA, the binding signal (normalized occupancy) is reported as 0.0786.
AGTCGTAG gave a binding signal (normalized occupancy) of 0.0702.
CGCATCCC gave a binding signal (normalized occupancy) of 0.0821.
CGACTCCC showed a binding signal (normalized occupancy) of 0.0754.
Sequence CGCACATA has a binding signal (normalized occupancy) of 0.0812.
GAGAGTGC gave a binding signal (normalized occupancy) of 0.0808.
With TAGGCCGA the binding signal (normalized occupancy) was 0.0661.
With ACATTGGT the binding signal (normalized occupancy) was 0.0773.
AGACGCAC gave a binding signal (normalized occupancy) of 0.0752.
Sequence ATTGTCTA has a binding signal (normalized occupancy) of 0.0825.
CGAAAAAA showed a binding signal (normalized occupancy) of 0.0757.
Work on GGCTCAAA yielded a binding signal (normalized occupancy) of 0.0652.
AGACTTAT was tested, and the binding signal (normalized occupancy) was 0.0756.
In the case of AATAATGA, the binding signal (normalized occupancy) is reported as 0.0809.
ACTCATTA showed a binding signal (normalized occupancy) of 0.0832.
